# From PubChem BioAssay AID588456 (National Center for Advancing Translational Sciences (NCATS), 2011)
# Hit rate of the full screen: of about 390,000 compounds, about 55 (0.01%) were called active. Inconclusive means that the source gave no clear call. Such entries were picked first, then a sample of the others. Calls follow the shape of the dose curve; as a rule, active = well fitted inhibition curve with a large enough effect; inconclusive = small, poorly fitted or top-dose-only effect; inactive = no such curve, though single readings can be large or run the other way. A potency beside an inconclusive call is a rough fit, not a confirmed value.
# Biological target: Thioredoxin reductase 1, cytoplasmic (Rattus norvegicus) (UniProt O89049)
# Test: qHTS Assay for Substrates of Mammalian Selenoprotein Thioredoxin Reductase 1 (TrxR1): qHTS; also: nearly all actives have a fitted effect of over 50% in size
# Settings: purified TrxR1 substrate turnover, NADPH consumption readout; series mostly up to 114 µM; activity change, negative = substrate turnover: at the top concentration
# Procedure, shortened: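 Rat TrxR1, dispensed at 90 nM, was prereduced with 400 uM NADPH (final) for 5 min at ~22 deg C, then incubated with compound 15 min before 400 uM selenite. A first-read NADPH fluorescence drop versus no-compound background flagged substrates.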
# % is scaled to controls: 0 for no effect and ±100 for the full control effect; potency is read from the fitted curve at half-maximal effect; tags tell the direction and shape of the fitted curve.
# Sequence of UniProt O89049 (O89049 whole entry, looked up): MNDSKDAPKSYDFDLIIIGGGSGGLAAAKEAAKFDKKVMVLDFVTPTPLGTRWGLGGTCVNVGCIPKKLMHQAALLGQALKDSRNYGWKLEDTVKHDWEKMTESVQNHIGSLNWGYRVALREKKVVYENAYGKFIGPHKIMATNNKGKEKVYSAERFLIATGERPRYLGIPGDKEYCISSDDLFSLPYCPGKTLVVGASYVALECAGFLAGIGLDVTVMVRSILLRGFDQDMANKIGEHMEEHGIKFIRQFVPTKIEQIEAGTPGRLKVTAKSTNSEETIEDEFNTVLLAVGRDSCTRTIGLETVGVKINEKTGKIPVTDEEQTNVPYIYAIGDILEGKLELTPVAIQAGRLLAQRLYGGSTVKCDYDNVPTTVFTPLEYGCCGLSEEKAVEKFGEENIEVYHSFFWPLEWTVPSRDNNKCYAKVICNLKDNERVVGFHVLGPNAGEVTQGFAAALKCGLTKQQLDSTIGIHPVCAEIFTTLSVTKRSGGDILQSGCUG
SMILES,"activity change, negative = substrate turnover",Potency
O=C(O)c1cc(-c2ccc(/C=C3/SC(=S)N(Cc4ccccc4)C3=O)o2)ccc1Cl,inactive: 7.78% [at 57.1 µM],–
O=C1C(=Cc2ccco2)CCCC1=Cc1ccco1,–,"inconclusive: 89.1 µM [inhibitor, single point]"
O=C(CC(=O)Nc1nc(C23CC4CC(CC(C4)C2)C3)cs1)NCCO,–,"inconclusive: 89.1 µM [inhibitor, single point]"
CCOC(=O)c1ccc(NS(=O)(=O)c2ccc(SC)cc2)cc1,inactive: 8.77%,–
O=C(NCC1COc2ccccc2O1)c1cc2ccccc2o1 (stereo not drawn),–,"inconclusive: 10 µM [inhibitor, partial curve, poor fit]"
Cc1ccc(C(=O)Nc2ccccc2C(=O)NC(Cc2c[nH]c3ccccc23)C(=O)O)cc1 (stereo not drawn),–,"inconclusive: 89.1 µM [inhibitor, single point]"
CN1CCO/C1=C(\C(Cl)=C(Cl)Cl)[N+](=O)[O-],inactive: 8.47%,–
COC1=CC(=O)OC(C)(c2ccccc2)C1 (stereo not drawn),–,"inconclusive: 89.1 µM [inhibitor, single point]"
O=C(c1ccc(Cl)cc1)N1CCN(c2ccc([N+](=O)[O-])c3ncccc23)CC1,–,"inconclusive: 4.74 µM [inhibitor, partial curve, poor fit]"
COc1cccc(CNC(=O)Cn2cc3c(n2)-c2c(oc(C(=O)N4CCCC4)c2C)CC3)c1,inactive: 3.21%,–
CCN(CC)CCCNC(=O)C1CCC(CNS(=O)(=O)c2c(C)cc(C)cc2C)CC1 (stereo not drawn),–,"inconclusive: 39.8 µM [inhibitor, single point]"
COc1ccc(-n2ccn(Cc3ccccc3Cl)c(=O)c2=O)cc1OC,–,"inconclusive: 35.5 µM [inhibitor, single point]"
CC(C)c1nc2sc3c(SCC(=O)NCc4ccco4)ncnc3c2c2c1CCC2,–,"inconclusive: 25.1 µM [inhibitor, single point]"
Nc1cc(-c2ccncc2)c[nH]c1=O,–,"inconclusive: 79.4 µM [inhibitor, partial curve, poor fit]"
O=C(Oc1ccc2c(=O)c(Cl)coc2c1)c1cccnc1,inactive: 7.32% [at 57.1 µM],–
CC(C)CSC1=NSC2=NC(=O)/C(=C\c3coc4ccccc4c3=O)C(=N)N12,inactive: 2.87%,–
Cc1ccc(OCC(=O)Nc2ccccc2OCc2cc(=O)n3ccccc3n2)cc1C,–,"inconclusive: 25.1 µM [inhibitor, single point]"
Cc1c(NS(=O)(=O)c2ccc(C(=O)N(C)Cc3cccc(Cl)c3Cl)cc2)c(=O)n(-c2ccccc2)n1C,–,"inconclusive: 89.1 µM [inhibitor, single point]"
Cc1ccc(C(=O)N=c2sccn2C)cc1S(=O)(=O)N1CCOCC1,–,"inconclusive: 89.1 µM [inhibitor, partial curve, poor fit]"
CCc1ccc(N(CC(=O)NCc2ccco2)C(=O)CCC(=O)Nc2nccs2)cc1,–,"inconclusive: 89.1 µM [inhibitor, partial curve, poor fit]"
Cc1csc2ncnc(NC3CCN(Cc4ccccc4)CC3)c12,inactive: 2.72%,–
Cc1ccccc1-c1nc2c(=O)n(C)c(=O)nc-2n(C)n1,–,active: 12.6 µM
Cn1cc(S(=O)(=O)N2CCCC2)cc1C(=O)Nc1ccc(F)cc1F,–,"inconclusive: 39.8 µM [inhibitor, single point]"

SMILES,"activity change, negative = substrate turnover",Potency
CC(C)c1ccccc1NC(=O)CCc1nc2ccccc2s1,inactive: -8.65%,–
Cc1ccc(S(=O)(=O)/N=C2/C=C(Sc3ncn[nH]3)C(=O)c3ccccc32)cc1,–,active: 10 µM
CC(C)(C)c1cc(/C=C(\C#N)C(N)=S)cc(C(C)(C)C)c1O,–,"inconclusive: 0.0168 µM [inhibitor, partial curve, poor fit]"
CCc1ccc2c(c1)c(N=NC1=NC(=O)CS1)c(O)n2C,–,"inconclusive: 79.4 µM [inhibitor, partial curve, poor fit]"
COc1ccccc1C(=O)Nc1ccccc1C(=O)OCc1cc(=O)n2c(C)csc2n1,–,"inconclusive: 3.55 µM [inhibitor, single point]"
Cc1ccccc1OCC(=O)N/N=C/c1ccc([N+](=O)[O-])o1,inactive: -6.18%,–
COc1cccc(CNC(=O)CCC2CCCN(C(=O)c3cc(C4CC4)[nH]n3)C2)c1 (stereo not drawn),inactive: 4.89%,–
CCc1ccc(S(=O)(=O)/N=C2/C=C(Sc3ncn[nH]3)C(=O)c3ccccc32)cc1,–,active: 7.94 µM
O=C(COC(=O)c1c[nH]c2ccccc12)NC1CCCCC1,–,"inconclusive: 39.8 µM [inhibitor, single point]"
CNC(=O)NC(=O)CSc1ncc(C(F)(F)F)cc1Cl,inactive: 1.33%,–
Cc1cc(=O)n2[nH]c(=O)c(N=Nc3ccccc3)c2[nH]1,–,"inconclusive: 31.6 µM [inhibitor, partial curve, poor fit]"
CCc1ccc(/C=C2/SC(=S)N(CCC(=O)Nc3cccnc3)C2=O)cc1,inactive: -1.16%,–
Cc1c(N2C(=O)/C(=C\c3ccc(N(C)C)cc3)N(C)C2=S)c(=O)n(-c2ccccc2)n1C,–,"inconclusive: 79.4 µM [inhibitor, partial curve, poor fit]"
Cc1ccc(C(=O)Nc2ccc(Nc3ccccc3)cc2)cc1Br,–,"inconclusive: 39.8 µM [inhibitor, partial curve, poor fit]"
CN(C)NC(=S)NC1(C)CCS(=O)(=O)C1 (stereo not drawn),inactive: 5.9%,–
O=C(NC1CCC(O)CC1)c1cc(-c2ccc(Cl)cc2)nc2ccccc12 (stereo not drawn),inactive: 5.86%,–
CCN1C(=O)/C(=C/C=C2/CCCN2C)OC1=S,–,"inconclusive: 56.2 µM [inhibitor, partial curve, poor fit]"
CCOC(=O)C1=C(C)NC(C)=C(C(=O)OC)C1c1cccc([N+](=O)[O-])c1 (stereo not drawn),–,"inconclusive: 11.2 µM [inhibitor, partial curve, poor fit]"
CC(C(=O)NCc1ccccc1)n1cc([N+](=O)[O-])cn1 (stereo not drawn),–,"inconclusive: 39.8 µM [inhibitor, partial curve, poor fit]"
COc1ccccc1NC(=O)NC1(C(=O)N2CCN(C)CC2)CCCCC1,–,"inconclusive: 89.1 µM [inhibitor, partial curve, poor fit]"
CCS(=O)(=O)N1CCN(c2ccc(S(=O)(=O)N3CCOCC3)cc2)CC1,–,"inconclusive: 89.1 µM [inhibitor, partial curve, poor fit]"
O=C(Nc1nnc(-c2ccc(Cl)cc2)o1)NC1CCCCC1,inactive: -5% [at 57.1 µM],–
Cc1ccc(NC(=O)Cc2nnc(SCC(=O)Nc3nncs3)n2C)c(C)c1,–,"inconclusive: 89.1 µM [inhibitor, partial curve, poor fit]"

SMILES,"activity change, negative = substrate turnover",Potency
CCO[C@@H]1OC(C(=O)NC2CC2)=C[C@H](C(C)(C)C)[C@H]1CCCO,–,"inconclusive: 89.1 µM [inhibitor, single point]"
Cc1cc(C)c(S(=O)(=O)/N=C2/C=C(Sc3ncn[nH]3)C(=O)c3ccccc32)cc1C,–,active: 14.1 µM
Oc1ccc2ccccc2c1C=NC12CN3CCN(CN(C3)C1)C2,–,"inconclusive: 79.4 µM [inhibitor, partial curve, poor fit]"
COc1cc(NC(=O)CN2C(=O)CN(C)C(=O)c3ccccc32)cc(OC)c1OC,–,"inconclusive: 7.08 µM [inhibitor, single point]"
CNC(CC(=O)c1ccc([N+](=O)[O-])cc1)C(Cl)(Cl)Cl (stereo not drawn),–,"inconclusive: 79.4 µM [inhibitor, partial curve, poor fit]"
Cc1nc(Cl)cc(N/N=C/c2ccc(O)cc2O)n1,–,"inconclusive: 89.1 µM [inhibitor, partial curve, poor fit]"
CCn1nc(-c2ccc(C)cc2)nc2c(=O)n(C)c(=O)nc1-2,–,active: 50.1 µM
N#C/C(=C/c1ccc(O)c([N+](=O)[O-])c1)C(=O)Nc1ccccc1,–,"inconclusive: 70.8 µM [inhibitor, partial curve, poor fit]"
CCN1/C(=C/C(C)=O)Sc2ccc(OC)cc21,–,"inconclusive: 18.9 µM [inhibitor, partial curve, poor fit]"
COc1cc(/C=C2\N=C3CCCCCN3C2=O)ccc1O,–,"inconclusive: 70.8 µM [inhibitor, partial curve, poor fit]"
CN(C)c1ccc(/C=C2\C(=O)Nc3ccccc32)cc1,–,"inconclusive: 10 µM [inhibitor, partial curve, poor fit]"
O=C(CSc1ccc(Cl)cc1)N1CCN(c2c(Cl)cccc2[N+](=O)[O-])CC1,–,"inconclusive: 20 µM [inhibitor, single point]"
COC(=O)[C@@H](NC(=O)NCCC1=CCCCC1)C(C)C,–,"inconclusive: 89.1 µM [inhibitor, single point]"
CCCCn1cnc2c(cnn2-c2ccc(Cl)cc2)c1=O,inactive: -15.6%,–
CC1(C)C(=O)OC(C(=O)c2ccc(Cl)cc2)C(C)(C)C1=O (stereo not drawn),inactive: 1.56%,–
O=C1/C(=C/c2cccnc2)CC/C1=C\c1cccnc1,inactive: -2.8%,–
COc1ccc(NC(=O)CN(C)S(=O)(=O)c2ccc(Br)s2)cc1OC,–,"inconclusive: 89.1 µM [inhibitor, single point]"
Cc1cccc(NC2=NC(C)(C)N=C(N)N2)c1C,inactive: 1.71%,–
NC(=O)NO,–,"inconclusive: 23.8 µM [inhibitor, partial curve, poor fit]"
O=[N+]([O-])c1ccccc1S(=O)(=O)Nc1cccc(-c2ccc(N3CCOCC3)nn2)c1,inactive: -0.42%,–
CCN(CC)CC1C(=O)N(c2ccc(OC)cc2)C1c1ccccc1 (stereo not drawn),–,"inconclusive: 25.1 µM [inhibitor, partial curve, poor fit]"
Cc1ccc(CNc2ccc(O)cc2)cc1,–,"inconclusive: 39.8 µM [inhibitor, partial curve, poor fit]"
